# Results taken from the supplement of paper PMC11876631.
# ± gives the standard deviation of the averaged measurements. Laboratory Escherichia coli strains with one amino-acid change in an essential protein, pooled on minimal glucose agar with carbenicillin or gentamicin at twice the control MIC (plus kanamycin and chloramphenicol for the plasmids), 48 h. Fold change of barcode share against drug-free plates; higher = less susceptible. Active = above 20 in both replicates (the paper's putatively resistant). '<' = one read or none on drug, '>' = one read or none on a drug-free plate. Shares are relative, so most strains fall below 1 when a few take over. Listed are strains with at least 15 reads on both drug-free plates, and hits; most hits rest on fewer reference reads. Replicate rank correlation about 0.5. Edits are read from barcodes.
# B1: trpB F204Q (protein)
# chain: MTTLLNPYFGEFGGMYVPQILMPALRQLEEAFVSAQKDPEFQAQFNDLLKNYAGRPTALTKCQNITAGTNTTLYLKREDLLHGGAHKTNQVLGQALLAKRMGKTEIIAETGAGQHGVASALASALLGLKCRIYMGAKDVERQSPNVFRMRLMGAEVIPVHSGSATLKDACNEALRDWSGSYETAHYMLGTAAGPHPYPTIVREQQRMIGEETKAQILEREGRLPDAVIACVGGGSNAIGMFADFINETNVGLIGVEPGGHGIETGEHGAPLKHGRVGIYFGMKAPMMQTEDGQIEESYSISAGLDFPSVGPQHAYLNSTGRADYVSITDDEALEAFKTLCLHEGIIPALESSHALAHALKMMRENPDKEQLLVVNLSGRGDKDIFTVHDILKARGEI
# B2: trpB V231A (protein)
# chain: MTTLLNPYFGEFGGMYVPQILMPALRQLEEAFVSAQKDPEFQAQFNDLLKNYAGRPTALTKCQNITAGTNTTLYLKREDLLHGGAHKTNQVLGQALLAKRMGKTEIIAETGAGQHGVASALASALLGLKCRIYMGAKDVERQSPNVFRMRLMGAEVIPVHSGSATLKDACNEALRDWSGSYETAHYMLGTAAGPHPYPTIVREFQRMIGEETKAQILEREGRLPDAVIACAGGGSNAIGMFADFINETNVGLIGVEPGGHGIETGEHGAPLKHGRVGIYFGMKAPMMQTEDGQIEESYSISAGLDFPSVGPQHAYLNSTGRADYVSITDDEALEAFKTLCLHEGIIPALESSHALAHALKMMRENPDKEQLLVVNLSGRGDKDIFTVHDILKARGEI
# B3: trpB F241W (protein)
# chain: MTTLLNPYFGEFGGMYVPQILMPALRQLEEAFVSAQKDPEFQAQFNDLLKNYAGRPTALTKCQNITAGTNTTLYLKREDLLHGGAHKTNQVLGQALLAKRMGKTEIIAETGAGQHGVASALASALLGLKCRIYMGAKDVERQSPNVFRMRLMGAEVIPVHSGSATLKDACNEALRDWSGSYETAHYMLGTAAGPHPYPTIVREFQRMIGEETKAQILEREGRLPDAVIACVGGGSNAIGMWADFINETNVGLIGVEPGGHGIETGEHGAPLKHGRVGIYFGMKAPMMQTEDGQIEESYSISAGLDFPSVGPQHAYLNSTGRADYVSITDDEALEAFKTLCLHEGIIPALESSHALAHALKMMRENPDKEQLLVVNLSGRGDKDIFTVHDILKARGEI
# B4: trpB V231Q (protein)
# chain: MTTLLNPYFGEFGGMYVPQILMPALRQLEEAFVSAQKDPEFQAQFNDLLKNYAGRPTALTKCQNITAGTNTTLYLKREDLLHGGAHKTNQVLGQALLAKRMGKTEIIAETGAGQHGVASALASALLGLKCRIYMGAKDVERQSPNVFRMRLMGAEVIPVHSGSATLKDACNEALRDWSGSYETAHYMLGTAAGPHPYPTIVREFQRMIGEETKAQILEREGRLPDAVIACQGGGSNAIGMFADFINETNVGLIGVEPGGHGIETGEHGAPLKHGRVGIYFGMKAPMMQTEDGQIEESYSISAGLDFPSVGPQHAYLNSTGRADYVSITDDEALEAFKTLCLHEGIIPALESSHALAHALKMMRENPDKEQLLVVNLSGRGDKDIFTVHDILKARGEI
# B5: can I116A (protein)
# chain: MKDIDTLISNNALWSKMLVEEDPGFFEKLAQAQKPRFLWIGCSDSRVPAERLTGLEPGELFVHRNVANLVIHTDLNCLSVVQYAVDVLEVEHIIICGHYGCGGVQAAVENPELGLANNWLLHIRDIWFKHSSLLGEMPQERRLDTLCELNVMEQVYNLGHSTIMQSAWKRGQKVTIHGWAYGIHDGLLRDLDVTATNRETLEQRYRHGISNLKLKHANHK
# B6: trpC V446A (protein)
# chain: MMQTVLAKIVADKAIWVEARKQQQPLASFQNEVQPSTRHFYDALQGARTAFILECKKASPSKGVIRDDFDPARIAAIYKHYASAISVLTDEKYFQGSFNFLPIVSQIAPQPILCKDFIIDPYQIYLARYYQADACLLMLSVLDDDQYRQLAAVAHSLEMGVLTEVSNEEEQERAIALGAKVVGINNRDLRDLSIDLNRTRELAPKLGHNVTVISESGINTYAQVRELSHFANGFLIGSALMAHDDLHAAVRRVLLGENKVCGLTRGQDAKAAYDAGAIYGGLIFVATSPRCVNVEQAQEVMAAAPLQYVGVFRNHDIADVVDKAKVLSLAAVQLHGNEEQLYIDTLREALPAHVAIWKALSVGETLPAREFQHVDKYVLDNGQGGSGQRFDWSLLNGQSLGNVLLAGGLGADNCVEAAQTGCAGLDFNSAVESQPGIKDARLLASAFQTLRAY
# B7: trpC V446D (protein)
# chain: MMQTVLAKIVADKAIWVEARKQQQPLASFQNEVQPSTRHFYDALQGARTAFILECKKASPSKGVIRDDFDPARIAAIYKHYASAISVLTDEKYFQGSFNFLPIVSQIAPQPILCKDFIIDPYQIYLARYYQADACLLMLSVLDDDQYRQLAAVAHSLEMGVLTEVSNEEEQERAIALGAKVVGINNRDLRDLSIDLNRTRELAPKLGHNVTVISESGINTYAQVRELSHFANGFLIGSALMAHDDLHAAVRRVLLGENKVCGLTRGQDAKAAYDAGAIYGGLIFVATSPRCVNVEQAQEVMAAAPLQYVGVFRNHDIADVVDKAKVLSLAAVQLHGNEEQLYIDTLREALPAHVAIWKALSVGETLPAREFQHVDKYVLDNGQGGSGQRFDWSLLNGQSLGNVLLAGGLGADNCVEAAQTGCAGLDFNSAVESQPGIKDARLLASDFQTLRAY
# B8: trpC L405W (protein)
# chain: MMQTVLAKIVADKAIWVEARKQQQPLASFQNEVQPSTRHFYDALQGARTAFILECKKASPSKGVIRDDFDPARIAAIYKHYASAISVLTDEKYFQGSFNFLPIVSQIAPQPILCKDFIIDPYQIYLARYYQADACLLMLSVLDDDQYRQLAAVAHSLEMGVLTEVSNEEEQERAIALGAKVVGINNRDLRDLSIDLNRTRELAPKLGHNVTVISESGINTYAQVRELSHFANGFLIGSALMAHDDLHAAVRRVLLGENKVCGLTRGQDAKAAYDAGAIYGGLIFVATSPRCVNVEQAQEVMAAAPLQYVGVFRNHDIADVVDKAKVLSLAAVQLHGNEEQLYIDTLREALPAHVAIWKALSVGETLPAREFQHVDKYVLDNGQGGSGQRFDWSLLNGQSLGNVLWAGGLGADNCVEAAQTGCAGLDFNSAVESQPGIKDARLLASVFQTLRAY
# B9: trpC L405A (protein)
# chain: MMQTVLAKIVADKAIWVEARKQQQPLASFQNEVQPSTRHFYDALQGARTAFILECKKASPSKGVIRDDFDPARIAAIYKHYASAISVLTDEKYFQGSFNFLPIVSQIAPQPILCKDFIIDPYQIYLARYYQADACLLMLSVLDDDQYRQLAAVAHSLEMGVLTEVSNEEEQERAIALGAKVVGINNRDLRDLSIDLNRTRELAPKLGHNVTVISESGINTYAQVRELSHFANGFLIGSALMAHDDLHAAVRRVLLGENKVCGLTRGQDAKAAYDAGAIYGGLIFVATSPRCVNVEQAQEVMAAAPLQYVGVFRNHDIADVVDKAKVLSLAAVQLHGNEEQLYIDTLREALPAHVAIWKALSVGETLPAREFQHVDKYVLDNGQGGSGQRFDWSLLNGQSLGNVLAAGGLGADNCVEAAQTGCAGLDFNSAVESQPGIKDARLLASVFQTLRAY
# B10: trpC V446Q (protein)
# chain: MMQTVLAKIVADKAIWVEARKQQQPLASFQNEVQPSTRHFYDALQGARTAFILECKKASPSKGVIRDDFDPARIAAIYKHYASAISVLTDEKYFQGSFNFLPIVSQIAPQPILCKDFIIDPYQIYLARYYQADACLLMLSVLDDDQYRQLAAVAHSLEMGVLTEVSNEEEQERAIALGAKVVGINNRDLRDLSIDLNRTRELAPKLGHNVTVISESGINTYAQVRELSHFANGFLIGSALMAHDDLHAAVRRVLLGENKVCGLTRGQDAKAAYDAGAIYGGLIFVATSPRCVNVEQAQEVMAAAPLQYVGVFRNHDIADVVDKAKVLSLAAVQLHGNEEQLYIDTLREALPAHVAIWKALSVGETLPAREFQHVDKYVLDNGQGGSGQRFDWSLLNGQSLGNVLLAGGLGADNCVEAAQTGCAGLDFNSAVESQPGIKDARLLASQFQTLRAY
# B11: trpC V446W (protein)
# chain: MMQTVLAKIVADKAIWVEARKQQQPLASFQNEVQPSTRHFYDALQGARTAFILECKKASPSKGVIRDDFDPARIAAIYKHYASAISVLTDEKYFQGSFNFLPIVSQIAPQPILCKDFIIDPYQIYLARYYQADACLLMLSVLDDDQYRQLAAVAHSLEMGVLTEVSNEEEQERAIALGAKVVGINNRDLRDLSIDLNRTRELAPKLGHNVTVISESGINTYAQVRELSHFANGFLIGSALMAHDDLHAAVRRVLLGENKVCGLTRGQDAKAAYDAGAIYGGLIFVATSPRCVNVEQAQEVMAAAPLQYVGVFRNHDIADVVDKAKVLSLAAVQLHGNEEQLYIDTLREALPAHVAIWKALSVGETLPAREFQHVDKYVLDNGQGGSGQRFDWSLLNGQSLGNVLLAGGLGADNCVEAAQTGCAGLDFNSAVESQPGIKDARLLASWFQTLRAY
# B12: trpC V446P (protein)
# chain: MMQTVLAKIVADKAIWVEARKQQQPLASFQNEVQPSTRHFYDALQGARTAFILECKKASPSKGVIRDDFDPARIAAIYKHYASAISVLTDEKYFQGSFNFLPIVSQIAPQPILCKDFIIDPYQIYLARYYQADACLLMLSVLDDDQYRQLAAVAHSLEMGVLTEVSNEEEQERAIALGAKVVGINNRDLRDLSIDLNRTRELAPKLGHNVTVISESGINTYAQVRELSHFANGFLIGSALMAHDDLHAAVRRVLLGENKVCGLTRGQDAKAAYDAGAIYGGLIFVATSPRCVNVEQAQEVMAAAPLQYVGVFRNHDIADVVDKAKVLSLAAVQLHGNEEQLYIDTLREALPAHVAIWKALSVGETLPAREFQHVDKYVLDNGQGGSGQRFDWSLLNGQSLGNVLLAGGLGADNCVEAAQTGCAGLDFNSAVESQPGIKDARLLASPFQTLRAY
# Target: Escherichia coli (laboratory strain)
# Test: barcode share on antibiotic plates over drug-free plates; higher = less susceptible
# Settings: antibiotic: carbenicillin; 2× MIC (3.1 µg/mL)
# Experimental: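 A pool of E. coli strains, each edited to carry one amino-acid change in an essential protein, was grown for 48 h on minimal glucose agar with or without antibiotic; strain barcodes were sequenced; mean of two replicates.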
row,Protein,fold change of barcode share
1,B1,0.469 ± 0.0069
2,B2,0.256 ± 0.069
3,B3,0.379 ± 0.27
4,B4,0.672 ± 0.34
5,B5,0.85 ± 0.37
6,B6,0.535 ± 0.0078
7,B7,0.659 ± 0.14
8,B8,2.52 ± 0.29
9,B9,0.671 ± 0.078
10,B10,0.44 ± 0.0054
11,B11,0.75 ± 0.013
12,B12,0.489 ± 0.072

# Same assay, conditions: antibiotic: gentamicin; 2× MIC (MIC 0.45 µg/mL)
row,Protein,fold change of barcode share
1,B1,0.0116 ± 0.0038
2,B2,0.012 ± 0.0095
3,B3,< 0.0112
4,B4,0.0102 ± 0.0042
5,B5,< 0.00899
6,B6,0.0121 ± 0.003
7,B7,0.0234 ± 0.014
8,B9,0.0137 ± 0.00092
9,B10,0.0155 ± 0.0096
10,B11,0.0255 ± 0.0034
11,B12,0.0136 ± 0.008
